{
  "source": "paper PMC9917443",
  "about": "(eLife, 2023)",
  "biological_target": "GB1a/2 receptors (Homo sapiens, UniProt O75899+Q9UBS5)",
  "sequence (Q9UBS5 15-961 limits assumed)": "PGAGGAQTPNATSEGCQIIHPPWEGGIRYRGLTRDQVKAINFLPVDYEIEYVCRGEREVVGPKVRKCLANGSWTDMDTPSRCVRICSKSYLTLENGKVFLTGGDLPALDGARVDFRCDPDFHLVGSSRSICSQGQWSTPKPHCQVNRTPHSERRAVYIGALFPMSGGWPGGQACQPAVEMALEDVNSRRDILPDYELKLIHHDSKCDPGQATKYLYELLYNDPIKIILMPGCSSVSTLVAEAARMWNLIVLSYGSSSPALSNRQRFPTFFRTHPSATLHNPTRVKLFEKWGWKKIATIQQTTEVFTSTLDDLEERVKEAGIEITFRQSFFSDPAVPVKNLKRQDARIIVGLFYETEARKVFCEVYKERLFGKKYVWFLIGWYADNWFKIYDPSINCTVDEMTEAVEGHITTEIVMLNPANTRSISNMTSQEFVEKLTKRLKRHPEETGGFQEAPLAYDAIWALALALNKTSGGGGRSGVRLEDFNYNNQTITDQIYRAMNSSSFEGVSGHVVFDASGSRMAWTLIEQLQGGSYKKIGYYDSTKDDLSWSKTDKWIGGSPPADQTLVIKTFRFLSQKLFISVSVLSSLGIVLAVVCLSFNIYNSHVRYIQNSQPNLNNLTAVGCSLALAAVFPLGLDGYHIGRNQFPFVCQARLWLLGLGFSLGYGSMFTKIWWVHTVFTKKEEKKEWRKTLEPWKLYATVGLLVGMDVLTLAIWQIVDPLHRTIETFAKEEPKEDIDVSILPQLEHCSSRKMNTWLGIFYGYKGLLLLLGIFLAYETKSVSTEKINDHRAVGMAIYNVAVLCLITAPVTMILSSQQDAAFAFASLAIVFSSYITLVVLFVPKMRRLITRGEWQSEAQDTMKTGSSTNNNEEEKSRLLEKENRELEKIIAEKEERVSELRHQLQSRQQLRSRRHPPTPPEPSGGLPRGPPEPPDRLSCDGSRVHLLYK",
  "sequence (O75899 42-941 partner)": "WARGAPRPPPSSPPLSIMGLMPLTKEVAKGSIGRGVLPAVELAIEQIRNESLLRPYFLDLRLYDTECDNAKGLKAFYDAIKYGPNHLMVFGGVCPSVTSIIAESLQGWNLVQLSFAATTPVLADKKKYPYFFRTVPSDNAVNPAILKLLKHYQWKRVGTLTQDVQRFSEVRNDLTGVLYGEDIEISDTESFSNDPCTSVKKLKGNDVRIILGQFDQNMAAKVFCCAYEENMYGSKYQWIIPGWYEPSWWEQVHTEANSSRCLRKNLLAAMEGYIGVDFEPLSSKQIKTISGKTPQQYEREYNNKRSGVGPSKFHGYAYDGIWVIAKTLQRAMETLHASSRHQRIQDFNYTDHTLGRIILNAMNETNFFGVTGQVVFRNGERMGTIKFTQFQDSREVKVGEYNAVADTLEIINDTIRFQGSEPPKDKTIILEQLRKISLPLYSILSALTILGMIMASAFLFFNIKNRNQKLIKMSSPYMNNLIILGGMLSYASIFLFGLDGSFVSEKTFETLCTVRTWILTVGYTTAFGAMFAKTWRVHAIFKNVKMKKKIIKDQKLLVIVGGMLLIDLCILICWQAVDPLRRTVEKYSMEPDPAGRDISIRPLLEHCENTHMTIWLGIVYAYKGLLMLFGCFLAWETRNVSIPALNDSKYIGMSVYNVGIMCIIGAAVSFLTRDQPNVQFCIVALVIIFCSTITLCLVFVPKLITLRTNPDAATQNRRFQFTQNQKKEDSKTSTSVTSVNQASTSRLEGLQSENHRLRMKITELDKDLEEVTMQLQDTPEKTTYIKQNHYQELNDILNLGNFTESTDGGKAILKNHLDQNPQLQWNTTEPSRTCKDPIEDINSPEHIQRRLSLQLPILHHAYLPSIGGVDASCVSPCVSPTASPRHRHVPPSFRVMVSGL",
  "assay": "SRE-luciferase accumulation assay (Gαqi/PLC) in HEK293T-Gαqi cells",
  "conditions": "GB1a/2 + APP, different curve for each data set; for EC50 of GABA in presence of peptide: 110 points",
  "data": [
    {"substance": "Ac-DDSDVWWGGADTDYADG-NH2 [APP17]", "values": [
      {"measurement": "HillSlope of GABA dose-response curve in presence of peptide", "setting": "1μM peptide", "value": 1.007},
      {"measurement": "Span of GABA dose-response curve in presence of peptide", "setting": "1μM peptide", "value": 0.7032},
      {"measurement": "EC50 of GABA in presence of peptide", "setting": "1μM peptide", "value": 313.3, "unit": "nM"},
      {"measurement": "HillSlope of GABA dose-response curve in presence of peptide", "setting": "10μM peptide", "value": 0.993},
      {"measurement": "Span of GABA dose-response curve in presence of peptide", "setting": "10μM peptide", "value": 0.6682},
      {"measurement": "EC50 of GABA in presence of peptide", "setting": "10μM peptide", "value": 341.3, "unit": "nM"}
    ]}
  ]
}
